# Experimental data from ChEMBL document CHEMBL1157539, “Thousands of chemical starting points for antimalarial lead identification” (Nature, 2010).
# In all, about 13,000 compounds were measured (“IFI”: median about 4, highest 2% from about 17 on). This is one part of the list.
# Assay: GSK_TCMDC: Inhibition Frequency Index (IFI). The number of non-kinase HTS assays where a compound showed > 50 % inhibition, expressed as a percentage of the number of such assays in which the compound was tested (-0 is zero)
# Type: functional
row,Compound,IFI [%]
1,COc1ccc(C(=O)NCc2ccccc2-c2ccc(C(C)(C)C)cc2)cc1O,2.94
2,Nc1cc(C(F)(F)F)ccc1Cl,-0
3,O=C(Nc1ccnc2ccccc12)NC1CCN(Cc2ccccc2)CC1,2.26
4,Oc1ccc(CN2CCC(N3CCN(CCc4ccccc4)CC3)C(O)C2)cc1Cl (stereo not drawn),-0
5,O=C(Nc1ccc(N2CCCN(Cc3cccc(F)c3)CC2)cc1)c1ccccc1,16.7
6,CCN(CC)CCCCNc1cc(-c2[nH]c(C(C)(C)C)nc2-c2ccc3cc(OC)ccc3c2)ccn1,4.38
7,Nc1ncnc2c1ncn2C(CO)Cc1ccc(O)cc1 (stereo not drawn),1.46
8,O=C(Nc1ccc(Cn2ncc(N3CCCNCC3)c(Cl)c2=O)cc1)Nc1ccc(SC(F)(F)F)cc1,8.82
9,CCOC(=O)c1c(CCc2ccc(C(F)(F)F)cc2)nc2c(c1-c1ccc(C(=O)N[C@@H](C)c3ccncc3)cc1)C(=O)N1CCC[C@@H]21,1.59
10,CCCCCCCN1CC[C@@H](C[C@H](N)Cc2ccnc3ccc(OC)cc23)[C@@H](CC)C1,2.86
11,CN1CCN(c2ccc(-c3cccc(NC(=O)c4cccc(Cl)c4)c3)nn2)CC1,1.64
12,Cc1cccc(Cl)c1S(=O)(=O)Nc1cccc(CCN2CCC(N3CCCCC3)CC2)c1,6.45
13,CCc1ccc(N2C(=O)C3C(Cc4ccc(OC(C)(C)C)cc4)NC4(C(=O)N(Cc5ccccc5)c5ccc(F)cc54)C3C2=O)cc1 (stereo not drawn),1.44
14,c1ccc2c(CNc3nc(NCC4CCCCC4)nc4[nH]cnc34)cccc2c1,8.85
15,O=C(Nc1ccc(C(F)(F)F)cc1)c1ccc(S(=O)(=O)NC2CCN(CC3CCCCC3)C2)cc1 (stereo not drawn),5.95
16,COc1ccc2c(N/N=C/c3cccc([N+](=O)[O-])c3)ccnc2c1,1.44
17,CCCN(CC1CC1)c1ncc(-c2ccccc2CNCc2ccccc2O)cn1,4.88
18,O=S(=O)(Nc1ccc(CCN2CCC(N3CCCCC3)CC2)cc1)c1cccc2cccnc12,8.33
19,CCNC[C@@H](O)[C@H](Cc1ccccc1)NC(=O)c1cc2c3c(c1)c(CC)cn3CCS(=O)(=O)N2C,1.49
20,COc1ccc2[nH]ccc(=NN=Cc3ccccc3F)c2c1,5.22
21,Cc1ccc(S(=O)(=O)N2CCN(C(=O)c3cc(-c4ccccc4)n[nH]3)CC2)cc1,2.7
22,CCOc1cc(C)ccc1C1CCN(CCCCNC(=O)c2coc(-c3ccc(Cl)cc3)c2)CC1,7.89

row,Compound,IFI [%]
1,CCN(CCCN1CCCCC1)c1nccc(Nc2ccc(Cl)cc2)n1,-0
2,CCn1ccc2c(N3CCCC3=O)cc(C(=O)N[C@@H](Cc3ccccc3)[C@H](O)CNC(C)(C)CCCC(C)C)cc21,4.96
3,Cc1ccc(Cc2cnc(CN3CCCCC3)c(O)c2)cc1,0.74
4,COc1cccc(CNC(=O)c2cc(CNCc3ccccc3)ccc2-c2cccc(CNCc3ccc(-c4ccccc4)cc3)c2)c1,9.6
5,CO/C(=C\C=C\c1cc2cc(Cl)c(Cl)cc2[nH]1)C(=O)NCCCN1CCCC[C@H]1C,15
6,Cc1cccc2nc(-c3ccc(-c4ccc(CN5CCN(CCO)CC5)cc4)cc3)[nH]c12,5.88
7,CC(C)Nc1nc(NCCc2c[nH]cn2)nc(NCc2cccc3ccccc23)n1,0.75
8,C=C[C@]1(C)C[C@@H](OC(=O)c2cncn(COC)c2=O)[C@]2(C)[C@H](C)CC[C@]3(CCC(=O)[C@H]32)[C@@H](C)[C@@H]1O,1.52
9,O=C(Nc1ccc(OC2CCN(Cc3ccc(F)cc3)C2)c(Cl)c1)c1ccc(F)cc1 (stereo not drawn),8.06
10,Cc1cc2ncc(C(N)=O)c(Nc3ccc(N4CCOCC4)cc3)c2cc1S(C)(=O)=O,3.55
11,Cn1ccnc1CNC(=O)c1ccc(-c2cccc(-c3nc4cc(C(F)(F)F)ccc4[nH]3)c2)cc1,2.75
12,COc1ccc2nccc(NC(=O)OC3CCC(NCc4ccc5c(n4)NC(=O)CS5)CC3)c2c1 (stereo not drawn),-0
13,COc1cc(C(=O)NC2CC(C)(C)N(C)C(C)(C)C2)ccc1-c1cc2cc(Cl)c(Cl)cc2[nH]1,13.6
14,O=C(C=Cc1ccc(-c2ccccc2)cc1)N1CCC(CCN2CCC(c3c[nH]c4ccccc34)CC2)CC1,7.91
15,CCC1CN(CCCn2c3ccccc3c3ccccc32)C(CC)CN1 (stereo not drawn),8.21
16,Cc1cc2ccc(/C=C/C(=O)NC3CCC(CCN4CCc5ccc(C#N)cc5CC4)CC3)cc2[nH]1 (stereo not drawn),1.52
17,Cc1ccc(S(=O)(=O)N(CCCN2CCN(C)CC2)Cc2csc(-c3ccc(CNCc4ccccc4)cc3)n2)cc1,4.93
18,CC(=O)CCc1ccc(OCCN(Cc2ccccc2C(F)(F)F)c2ccc(C#N)c(C(F)(F)F)c2)cc1,1.42
19,O=C(CSc1nn(-c2ccccc2)c(=S)s1)c1c[nH]c2ccccc12,0
20,CO/C(=C\C=C\c1cc2cc(Cl)c(Cl)cc2[nH]1)C(=O)NC1CC(C)N(C)C(C)C1 (stereo not drawn),11.8
21,NC(=O)c1ccc(C(=O)Nc2cccc(-c3csc(-c4nc5ccccc5[nH]4)c3)c2)cc1,0
22,COc1cc(C(=O)N2C(c3nccs3)C(C(=O)N(OC)C(C)c3ccccc3)CC2(CC(C)C)C(=O)OC(C)(C)C)ccc1C(C)(C)C (stereo not drawn),2.88

row,Compound,IFI [%]
1,COc1cc(Cc2cnc(N)nc2N)cc(OCCCc2cc(OCc3ccccc3)no2)c1OC,2.9
2,CCOc1ccc(-c2nc(NC(=O)Cc3cccc(OC)c3)sc2C)cc1,1.42
3,Cc1[nH]c(C)c(-c2ccc(OCc3cccc(C(F)(F)F)c3)nc2)c(=O)c1Br,13.8
4,CCOC(=O)C(CO)NC(=O)c1ccc([N+](=O)[O-])o1 (stereo not drawn),1.41
5,COc1ccc(C2CC(c3cccs3)=NN2C(=O)CNc2ccccc2F)cc1OC (stereo not drawn),0
6,O=C(c1cccc(-c2noc(C(F)(F)F)n2)c1)N1CCN(c2ccncc2)CC1,-0
7,O=C(/C=C/c1ccc(Cl)c(Cl)c1)NCCCCCN1CCCC(CNS(=O)(=O)c2cccc(C(F)(F)F)c2)C1 (stereo not drawn),15.7
8,OC1CCCN(Cc2ccc(-c3ccc(-c4nc5cc(F)ccc5[nH]4)s3)cc2)C1 (stereo not drawn),2.82
9,Cc1cccc2nc(-c3cccc(-c4cccc(CNCCNC(=O)c5ccnn5C)c4)c3)[nH]c12,4.95
10,COc1ccc(CCNc2ccnc3cc(Cl)ccc23)cc1OC,5.93
11,Cc1cc(Nc2ccc(C)c(Cl)c2)n2nc(C(F)(F)F)nc2n1,-0
12,COCC(=O)Nc1nc2ccccc2[nH]1,-0
13,Cc1nc2ccc3ccc(CNc4ccc5c(c4)CN([C@H](CCC(=O)O)C(=O)O)C5=O)cc3c2c(=O)[nH]1,1.52
14,COc1ccc(C(=O)N2CCc3cc4nccc(N5CCN6CCC[C@H]6C5)c4cc32)cc1,5.04
15,O=c1nc(NCCCNCc2cc3c(Cl)cc(Cl)cc3[nH]2)[nH]c2ccccc12,8.63
16,O=C(/C=C/c1ccc(Cl)c(Cl)c1)NC1CCN(CCCNC(=O)c2cccc(Cl)c2)CC1,9.87
17,CCNc1cc(C(=O)N[C@@H](Cc2ccccc2)[C@H](O)CNC(CC)c2cccc(Cl)c2)cc(N2CCCC2=O)c1 (stereo partly drawn),5.07
18,CNC(=N)c1ccc(NC(=O)c2ccc(C(=O)Nc3ccc(C(=N)NC)cc3)cc2)cc1,2.96
19,CCCc1c(C(=O)OCC)c2cc(O)ccc2n1-c1ccc(OC)cc1,1.67
20,O=C(Nc1ccc(-c2ccccc2)cc1)Nc1cccc(Cn2nc(Cl)c(N3CCCNCC3)cc2=O)c1,6.94
21,N#Cc1ccc(N/C(=N\c2cccc(Cl)c2Cl)NC2Cc3ccccc3C2)c(O)c1,6.47
22,COc1ccccc1N(C)CCNc1cc(C)nc(Nc2ccccc2)n1,9.52

row,Compound,IFI [%]
1,O=C(Cn1c(CCc2cccc(F)c2F)nc(=O)c2ccccc21)N(Cc1ccc(-c2ccc(C(F)(F)F)cc2)cc1)C1CCN(C2CCOCC2)CC1,12.1
2,CC(=NNc1nc2ccccc2s1)c1ccccn1,14.4
3,CCN(CC)CCCN(C(=O)Nc1ccc(C#N)cc1)c1nc(-c2ccc(F)cc2)cs1,7.23
4,O=C(O)CCSSc1cccc[n+]1[O-],12.3
5,CC1CCCCC1N(C)C1CCN(CCCNC(=O)C=Cc2cccc(C(F)(F)F)c2)CC1 (stereo not drawn),7.44
6,CS(=O)(=O)c1cccc(-c2cnc(N)c3cc(-c4cccc(F)c4)ccc23)c1,5.38
7,CN1CCC(N2CCN(Cc3ccc(-c4cccc(-c5nc6ccccc6[nH]5)c4)cc3)CC2)CC1,7.04
8,Cc1cc(N[C@@H](Cc2ccccc2)C(=O)Nc2ccccc2)nc(NCC2CCCCC2)n1,11.6
9,CC1CCCN(S(=O)(=O)c2cc(Br)cc3c2N(C(=O)C2CC2)CC3)C1 (stereo not drawn),1.99
10,O=C(/C=C/c1ccc(Cl)c(Cl)c1)NCCCCCCN1CCCN(C(=O)Nc2ccc(F)c(Cl)c2)CC1,7.32
11,CC(C)c1sc(-c2ccc(C(C)(C)C)cc2)nc1C(=O)NCCCN1CCCC1=O,1.67
12,CCOc1cc(C(=O)NCCc2ccc(Cl)c(Cl)c2)ccc1-c1nc2cc(Cl)ccc2[nH]1,1.43
13,O=C(/C=C/c1ccc(Cl)c(Cl)c1)NCCCCCCN1CCCN(C(=O)Nc2ccc(F)c(F)c2)CC1,6.5
14,C=CCOc1ccc(C2C(C(=O)OC)=C(C)NC3=C2C(=O)c2ccccc23)cc1OC (stereo not drawn),4.4
15,Cc1cccc2nc(-c3cccc(-c4cccc(NC(=O)c5cccnc5Cl)c4)c3)[nH]c12,4.63
16,O=C(NC(c1ccccc1)c1ccc2cccnc2c1O)c1ccccc1 (stereo not drawn),9.03
17,Brc1ccsc1-c1nc(NCCC(c2ccccc2)c2ccccc2)no1,10.6
18,COc1ccc2nc(C)cc(N/N=C/c3ccc([N+](=O)[O-])cc3)c2c1,2.11
19,CCc1c[nH]c2c(N3CCCC3=O)cc(C(=O)N[C@@H](Cc3ccccc3)[C@H](O)CNC(C)(C)CCCC(C)C)cc12,6.62
20,Cc1ccc(NC(=O)N2CCN(CCCCCNC(=O)/C=C/c3ccc(Cl)c(Cl)c3)CC2)cc1C,4.05
21,CC(C)(CNC(=O)C1CCN(CC2CCCCC2)CC1)c1nc(-c2ccc(Cl)c(O)c2)c(-c2ccncc2)[nH]1,0.74
22,O=C(Nc1ccc(N2CCN(Cc3c[nH]c4cc(F)ccc34)CC2)cc1)c1ccccc1-c1ccc(C(F)(F)F)cc1,7.83
